These results are taken from the BET-seq Pho4 binding data (Le et al. 2018).

This is one part of the list. Values were computed here from the reads of four pooled replicates and scatter widely.

The assay addresses T1, Pho4 (S. cerevisiae) (UniProt P07270).
T1 sequence: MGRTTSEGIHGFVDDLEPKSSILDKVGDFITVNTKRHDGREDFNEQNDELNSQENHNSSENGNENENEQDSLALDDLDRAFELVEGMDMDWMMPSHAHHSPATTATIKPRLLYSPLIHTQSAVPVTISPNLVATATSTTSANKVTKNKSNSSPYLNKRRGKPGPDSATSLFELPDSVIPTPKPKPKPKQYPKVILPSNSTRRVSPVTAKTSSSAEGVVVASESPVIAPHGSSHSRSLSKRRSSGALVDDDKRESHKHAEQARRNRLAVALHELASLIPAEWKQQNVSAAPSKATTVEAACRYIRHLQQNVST
The experiment in a line: relative binding free energy (BET-seq); higher = weaker binding. To be noted: reference: library average.
For CAGTTCACGTGGTGGT, the “relative binding free energy” value came to 0.18 kcal/mol.
As for TCATGCACGTGCTGGT, the figure is -0.06 kcal/mol; as for TTTGGCACGTGTTATA, -0.14 kcal/mol; as for GATTGCACGTGTTTCG, 0.23 kcal/mol.
Next, GGTGCCACGTGTGATG: 0.09 kcal/mol.
Next, GTTATCACGTGAAAAG: 0.41 kcal/mol; ATCGTCACGTGCTTTG: 0.23 kcal/mol.
Turning to GTTGGCACGTGTACGT, the “relative binding free energy” value was 0.14 kcal/mol.
Take ATGTCCACGTGAAGTG: the “relative binding free energy” value amounted to 0.28 kcal/mol.
With GCGTTCACGTGATGTG, the “relative binding free energy” value stood at 0.35 kcal/mol.
As for ATGTGCACGTGGGAAA, the figure is -0.13 kcal/mol; as for GATATCACGTGGGATT, 0.05 kcal/mol.
Next, AGTTTCACGTGTCATT: 0.27 kcal/mol.
Next, TAGTGCACGTGGACGT: 0.07 kcal/mol; CGGTACACGTGCTGTG: -0.01 kcal/mol; TGGTTCACGTGGGTCG: 0.22 kcal/mol.
On to TTTCACACGTGGGCGT, for which the “relative binding free energy” value is -0.09 kcal/mol.
Consider CGAGTCACGTGTTTGG, for which the “relative binding free energy” value was 0.09 kcal/mol.
In the case of GTTGGCACGTGAGCAT, the “relative binding free energy” value was 0.1 kcal/mol.
On to GGAGTCACGTGTGTGG, for which the “relative binding free energy” value was 0.19 kcal/mol.
Next, GGGGACACGTGGGTGA: -0.06 kcal/mol; CTTATCACGTGGGTGC: -0.03 kcal/mol.
As for GTTGGCACGTGAAGGC, the figure is 0.13 kcal/mol; as for TCAGGCACGTGTGCGT, -0.13 kcal/mol; as for TTGGACACGTGGGATA, -0.04 kcal/mol.
Next, AAGAGCACGTGATGAT: 0.09 kcal/mol.
As to TTAATCACGTGTTATG, the “relative binding free energy” value came to 0.15 kcal/mol.
GTCACCACGTGGGGGT: the “relative binding free energy” value was -0.2 kcal/mol.
For TCGGGCACGTGGGTCG, the “relative binding free energy” value is -0.14 kcal/mol.
Next, TAAGTCACGTGGTATT: 0.16 kcal/mol.
Next, GATGACACGTGAGTTT: 0.36 kcal/mol; AGGGTCACGTGATGGC: 0.31 kcal/mol.
CTGATCACGTGGGTGG: the “relative binding free energy” value was found to be 0.03 kcal/mol.
For the sequence GGCTCCACGTGGGGAG, the “relative binding free energy” value amounted to 0.1 kcal/mol.
With AGGTTCACGTGTGCTG, the “relative binding free energy” value came out at 0.26 kcal/mol.
As for GAGTACACGTGTATGG, the figure is 0.2 kcal/mol; as for TTAACCACGTGAGGGT, 0.24 kcal/mol.
In the case of TTGTGCACGTGCGGGC, the “relative binding free energy” value was 0 kcal/mol.
As for TTAAACACGTGTGTTG, the figure is 0 kcal/mol; as for AGGAGCACGTGGGGGC, -0.23 kcal/mol; as for AAGAGCACGTGGGCGC, -0.1 kcal/mol.
For the sequence GGTGTCACGTGATTCA, the “relative binding free energy” value was 0.22 kcal/mol.
As for GTAAACACGTGTGTAT, the “relative binding free energy” value is 0.02 kcal/mol.
GGTTCCACGTGGTGAT: the “relative binding free energy” value was found to be 0.01 kcal/mol.
As for TATAGCACGTGGCGGG, the figure is -0.16 kcal/mol.
Consider CATGTCACGTGACGTG, for which the “relative binding free energy” value amounted to 0.29 kcal/mol.
As for TGCTACACGTGTTGAG, the figure is 0.13 kcal/mol; as for TTAGTCACGTGAGGTC, 0.32 kcal/mol; as for GATTGCACGTGTAAAT, 0.29 kcal/mol.
Next, ACTTGCACGTGGGGTA: -0.07 kcal/mol.
In the case of TAGCGCACGTGATAGG, the “relative binding free energy” value is -0.03 kcal/mol.
Next, CAGTTCACGTGATGTG: 0.37 kcal/mol; GGTTGCACGTGAGTGT: 0.23 kcal/mol; GATTGCACGTGAATAT: 0.27 kcal/mol.
With ATGTACACGTGGGCAA, the “relative binding free energy” value was -0.09 kcal/mol.
As to ATAGACACGTGTTTAA, the “relative binding free energy” value was found to be 0.08 kcal/mol.
For GCATTCACGTGTGGGG, the “relative binding free energy” value was determined as 0.34 kcal/mol.
For GTTGGCACGTGTGGGC, the “relative binding free energy” value is 0.01 kcal/mol.
As for AAATGCACGTGGGGTA, the figure is -0.28 kcal/mol.
Next, GGGGCCACGTGGTGTC: -0.26 kcal/mol.
As for TTTTTCACGTGGCGAC, the figure is 0.37 kcal/mol; as for CGTGGCACGTGGTGAC, -0.12 kcal/mol; as for AGTCGCACGTGAGGGA, 0.24 kcal/mol.
For ATTTTCACGTGTCTTT, the “relative binding free energy” value is 0.17 kcal/mol.
In the case of GGCCTCACGTGGGGGA, the “relative binding free energy” value stood at 0.01 kcal/mol.
As for TGAGCCACGTGTGGTG, the figure is 0.02 kcal/mol; as for AAGAGCACGTGCGGGT, -0.04 kcal/mol.
For GTTGGCACGTGTTTGT, the “relative binding free energy” value is -0.07 kcal/mol.
As for CAGTGCACGTGGTTGG, the figure is -0.06 kcal/mol.
In the case of TTATCCACGTGGAGTG, the “relative binding free energy” value is 0 kcal/mol.
Regarding TTTGTCACGTGAATCA, the “relative binding free energy” value was 0.24 kcal/mol.
For GGAGGCACGTGGTTGA, the “relative binding free energy” value is -0.13 kcal/mol.
As for TCGTGCACGTGGGGAA, the figure is -0.11 kcal/mol; as for TGCTTCACGTGTGATG, 0.27 kcal/mol; as for TTGTTCACGTGATACA, 0.38 kcal/mol.
Next, GTGGACACGTGAGTAT: 0.18 kcal/mol; CTGTTCACGTGGTAAA: 0.37 kcal/mol.
As for CGAGTCACGTGGATAG, the figure is 0.13 kcal/mol; as for ATATTCACGTGGAGGG, 0.19 kcal/mol; as for AGTTTCACGTGGCGCT, 0.12 kcal/mol.
With TAGCTCACGTGTTGGG, the “relative binding free energy” value was 0.15 kcal/mol.
Take ATTAACACGTGACGGG: the “relative binding free energy” value is 0.07 kcal/mol.
As for ATGTGCACGTGTGGGC, the figure is 0.03 kcal/mol; as for GGTAGCACGTGGGGCG, -0.14 kcal/mol; as for AATGGCACGTGAGTCG, 0.09 kcal/mol.
As for GGACGCACGTGTGAGT, the “relative binding free energy” value was -0.01 kcal/mol.
For CTTAACACGTGTAGGT, the “relative binding free energy” value is -0.15 kcal/mol.
Regarding ATATGCACGTGTAGGA, the “relative binding free energy” value was -0.05 kcal/mol.
Consider TATATCACGTGTGTTC, for which the “relative binding free energy” value stood at 0.15 kcal/mol.
As for TATTGCACGTGGGGGT, the figure is -0.04 kcal/mol; as for TTAGGCACGTGGGTCC, -0.22 kcal/mol; as for TATAGCACGTGGTAGC, -0.1 kcal/mol.
As for GAGGTCACGTGGGAGA, the “relative binding free energy” value was -0.02 kcal/mol.
As for AATGGCACGTGTGGCC, the “relative binding free energy” value was found to be 0 kcal/mol.
Regarding AGGCTCACGTGTAAAG, the “relative binding free energy” value was 0.37 kcal/mol.
Next, CATGGCACGTGGCAGG: -0.2 kcal/mol; TTGTCCACGTGAACGG: 0.28 kcal/mol; ATTATCACGTGAGGTG: 0.32 kcal/mol.
As for GTAGACACGTGGTTAA, the figure is 0.1 kcal/mol.
Next, TGGAGCACGTGTGATA: -0.02 kcal/mol; TGCAACACGTGTGGGG: 0 kcal/mol.
Turning to TTGCACACGTGGTTAT, the “relative binding free energy” value is -0.02 kcal/mol.
For the sequence ATTGCCACGTGGGGTC, the “relative binding free energy” value was -0.09 kcal/mol.
Next, CGATTCACGTGGTTAG: 0.14 kcal/mol; GATGTCACGTGGGAGA: 0.06 kcal/mol; ATTAACACGTGTGCGT: -0.1 kcal/mol.
Next, AGGTTCACGTGGATCA: 0.49 kcal/mol; AGTTCCACGTGTAAGT: 0.25 kcal/mol; TGCGTCACGTGGGGCT: -0.03 kcal/mol.
As for GTGTTCACGTGGTTGG, the figure is 0.29 kcal/mol.
For GAGTGCACGTGAAGTA, the “relative binding free energy” value came to 0.32 kcal/mol.
Next, CTTAACACGTGTGATT: 0.12 kcal/mol.
AGCGACACGTGTTAGG: the “relative binding free energy” value turned out to be 0.08 kcal/mol.
As for TTGGTCACGTGATGTT, the figure is 0.18 kcal/mol; as for TGGATCACGTGAAGTA, 0.3 kcal/mol; as for ACTTTCACGTGTTATA, 0.4 kcal/mol.
As for CTATTCACGTGGGGCT, the figure is 0.07 kcal/mol; as for AGAGTCACGTGGGTGA, -0.11 kcal/mol; as for GGTGGCACGTGGCGCA, -0.3 kcal/mol.
AATGACACGTGGAGGC: the “relative binding free energy” value is 0.09 kcal/mol.
TGGTGCACGTGTTAAG: the “relative binding free energy” value was found to be 0.07 kcal/mol.
As for CTAGTCACGTGTATGA, the figure is 0.14 kcal/mol; as for TGATGCACGTGGTGAC, -0.08 kcal/mol.
As for ATGGGCACGTGTAGAC, the “relative binding free energy” value was 0 kcal/mol.
Consider TCTGTCACGTGTGGTC, for which the “relative binding free energy” value amounted to 0.02 kcal/mol.
As for ATGGGCACGTGCGGGG, the figure is -0.08 kcal/mol; as for TAGTTCACGTGGAGCG, 0.26 kcal/mol; as for TAGTGCACGTGGGTAG, -0.16 kcal/mol.
With TTGGACACGTGGTAAT, the “relative binding free energy” value is 0.08 kcal/mol.
On to GTAGGCACGTGGCGGT, for which the “relative binding free energy” value was -0.13 kcal/mol.
Next, GGATACACGTGGGATG: 0.03 kcal/mol.
As for CTGAGCACGTGTAAAT, the figure is 0.27 kcal/mol; as for GGCATCACGTGGGGTT, 0.2 kcal/mol.
As for CATTTCACGTGTTATT, the figure is 0.2 kcal/mol; as for GTGTCCACGTGTTTGA, 0 kcal/mol; as for TTTGTCACGTGTTGTG, 0.13 kcal/mol.
Turning to CATTTCACGTGTTGGT, the “relative binding free energy” value came out at 0.23 kcal/mol.
As for AACGGCACGTGTGATA, the figure is 0.19 kcal/mol; as for TAAATCACGTGTGAGT, 0.15 kcal/mol; as for GGGTTCACGTGGGAGA, 0.39 kcal/mol.
As for ATTGGCACGTGCGTTC, the figure is -0.16 kcal/mol; as for AAGGGCACGTGCTGAT, -0.07 kcal/mol; as for TGTAGCACGTGTAGCT, -0.05 kcal/mol.
As for TGGTTCACGTGTTACA, the figure is 0.24 kcal/mol.
For the sequence GGTCACACGTGTCGTG, the “relative binding free energy” value was found to be 0.1 kcal/mol.
Next, TGCGGCACGTGGGTAG: -0.25 kcal/mol.
